Some of the results follow. The full chains were built here from the parent and the listed change. Inactive controls read about 0.05.
B1: TEV protease; numbered along this chain (parent)
chain: MGESLFKGPRDYNPISSSICHLTNESDGHTTSLYGIGFGPFIITNKHLFRRNNGTLVVQSLHGVFKVKDTTTLQQHLVDGRDMIIIRMPKDFPPFPQKLKFREPQREERICLVTTNFQTKSMSSMVSDTSCTFPSGDGIFWKHWIQTKDGQCGSPLVSTRDGFIVGIHSASNFTNTNNYFTSVPKNFMELLTNQEAQQWVSGWRLNADSVLWGGHKVFMVKPEEPFQPVKEATQL

Variants of: B1
Assay: raw area under fraction-flipped curve 0-4 h after induction (AUC4h, not background-subtracted), DNA-recorder readout of cleavage of the substrate (dimensionless); higher = more cleavage of the substrate by the protease variant
Settings: temperature: 34 °C; time window: 0-4 h after rhamnose induction
Protocol: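 In vivo DNA recorder in E. coli TOP10(DE3) ΔrhaA at 34 °C. Each TEVp single-site mutant (parent TEVp 0) is paired with a single-site variant of the 7-mer TEVs (canonical ENLYFQ|S). The substrate sits between flexible linkers in a Bxb1-sfGFP-TEVs-SsrA fusion, so cleavage stabilises Bxb1 and speeds flipping of a recombination array, read by NGS. The value is the raw area under the fraction-flipped curve over 0-4 h after rhamnose induction (AUC4h), with ≥20 reads per time point. It is not background-subtracted; inactive controls average about 0.047.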
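Also: Bxb1 expression induced with 0.2% (w/v) L-rhamnose at OD600 near 0.5, cultures sampled hourly, flipped fraction per protease–substrate barcode pair counted by paired-end Illumina sequencing.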

Variant | area with substrate EALYFQS | area with substrate ECLYFQS | area with substrate EDLYFQS | area with substrate EELYFQS | area with substrate EILYFQS | area with substrate EKLYFQS | area with substrate ELLYFQS | area with substrate EMLYFQS | area with substrate EQLYFQS | area with substrate ERLYFQS | area with substrate ESLYFQS | area with substrate ETLYFQS | area with substrate EVLYFQS | area with substrate EWLYFQS | area with substrate EYLYFQS | area with substrate EFLYFQS | area with substrate EGLYFQS | area with substrate EPLYFQS | area with substrate EHLYFQS
K98H | 0.133 | 0.117 | 0.118 | 0.155 | 0.0934 | 0.102 | 0.105 | 0.107 | 0.141 | 0.102 | 0.104 | 0.132 | 0.103 | 0.13 | 0.0938 | – | – | – | –
M125F | 0.132 | 0.0762 | – | – | 0.0886 | 0.131 | 0.0968 | – | – | – | 0.115 | – | 0.116 | – | – | 0.096 | 0.128 | – | –
T119N | 0.188 | 0.0834 | – | – | – | 0.132 | 0.0822 | – | 0.171 | 0.136 | 0.182 | 0.147 | 0.0974 | 0.127 | 0.0909 | – | – | 0.165 | –
T119K | 0.124 | 0.138 | – | – | 0.107 | 0.168 | 0.0899 | – | – | 0.131 | 0.0773 | – | – | – | 0.101 | – | – | – | –
L156F | 0.0672 | 0.0677 | – | 0.0522 | – | 0.0558 | – | 0.0663 | 0.0591 | 0.0731 | – | – | 0.0445 | – | 0.0718 | – | – | – | 0.0732
L156A | 0.0996 | 0.108 | – | 0.0919 | 0.092 | – | – | 0.1 | 0.12 | – | 0.0962 | – | 0.0836 | 0.0889 | 0.0799 | 0.0801 | – | – | –
Q118E | 0.108 | 0.0877 | 0.0974 | – | 0.0639 | 0.0985 | 0.113 | 0.106 | – | – | 0.0996 | – | 0.108 | – | 0.0704 | – | 0.0675 | – | –
D137W | 0.0957 | 0.107 | – | 0.121 | – | – | – | – | 0.0679 | – | 0.157 | – | 0.0706 | – | – | 0.0983 | – | 0.0928 | –
D137G | 0.113 | 0.0868 | 0.106 | 0.108 | 0.0715 | – | 0.0753 | 0.119 | 0.0914 | – | 0.0903 | 0.127 | 0.113 | 0.0834 | 0.0927 | 0.113 | 0.101 | 0.108 | 0.073
P155T | 0.0486 | – | – | – | 0.0587 | – | 0.0762 | – | 0.0743 | – | 0.0722 | 0.0779 | 0.0628 | – | 0.0791 | – | – | 0.0719 | 0.0524
F101A | 0.0748 | – | – | – | 0.0631 | 0.0773 | 0.0681 | – | – | 0.065 | – | – | – | – | – | – | – | – | 0.0806
R102V | 0.0605 | 0.0509 | 0.0576 | – | – | 0.0561 | – | – | – | – | 0.0932 | 0.0315 | – | 0.0715 | 0.0507 | – | 0.0598 | – | 0.0622
R102L | 0.0591 | 0.0275 | – | 0.0559 | 0.0499 | 0.0468 | – | 0.0491 | 0.0578 | 0.0576 | 0.0421 | – | 0.0486 | 0.0719 | – | – | – | 0.0362 | –
R102F | 0.0655 | – | 0.0118 | 0.0559 | 0.0448 | – | 0.06 | 0.0454 | – | 0.037 | 0.0489 | – | 0.0485 | 0.0456 | – | 0.0465 | 0.0714 | – | 0.0413
L99A | 0.0574 | 0.0854 | – | – | 0.0928 | 0.105 | 0.105 | – | 0.125 | 0.0871 | – | – | 0.0995 | – | 0.0908 | 0.0872 | – | 0.114 | –
Q97M | 0.146 | – | – | 0.142 | 0.11 | – | – | 0.136 | 0.122 | – | 0.0988 | – | – | 0.0815 | 0.131 | – | 0.0904 | – | –

Variant | area with substrate EALYFQS | area with substrate ECLYFQS | area with substrate EDLYFQS | area with substrate EELYFQS | area with substrate EILYFQS | area with substrate EKLYFQS | area with substrate ELLYFQS | area with substrate EMLYFQS | area with substrate EQLYFQS | area with substrate ERLYFQS | area with substrate ESLYFQS | area with substrate ETLYFQS | area with substrate EVLYFQS | area with substrate EWLYFQS | area with substrate EYLYFQS | area with substrate EFLYFQS | area with substrate EGLYFQS | area with substrate EPLYFQS | area with substrate EHLYFQS
I110A | 0.0987 | 0.0798 | 0.124 | – | – | 0.0729 | – | – | – | – | – | – | 0.0868 | – | – | – | – | – | 0.123
S135E | 0.11 | 0.085 | 0.106 | 0.0597 | – | 0.0833 | – | 0.0704 | 0.0821 | 0.0841 | 0.0862 | – | 0.0793 | – | – | – | 0.0718 | 0.092 | –
S135M | 0.0582 | 0.0626 | – | – | 0.0611 | – | – | 0.0924 | – | 0.0656 | 0.0629 | – | 0.0516 | – | – | – | 0.0557 | 0.101 | 0.0714
S135T | 0.155 | – | 0.116 | – | 0.0713 | 0.0894 | 0.0596 | 0.102 | 0.117 | 0.0631 | 0.0743 | 0.049 | 0.0901 | – | 0.0907 | 0.0906 | 0.0585 | 0.1 | 0.112
C131G | 0.0989 | 0.0897 | – | – | – | – | 0.0718 | – | 0.124 | – | 0.11 | – | – | 0.076 | – | – | – | – | –
T129R | 0.102 | – | – | 0.114 | – | – | – | 0.0728 | 0.132 | – | 0.0986 | – | 0.105 | – | – | – | – | 0.106 | 0.0825
T114G | 0.117 | 0.14 | 0.15 | 0.112 | 0.0959 | – | 0.0805 | – | 0.108 | – | 0.109 | 0.0898 | 0.112 | – | 0.0919 | – | 0.0854 | 0.142 | –
V113E | 0.0743 | – | – | 0.0502 | 0.0645 | – | 0.0721 | – | 0.0754 | 0.0648 | 0.0741 | – | 0.0882 | 0.0628 | – | – | – | – | –
G150S | 0.0687 | 0.0553 | 0.0705 | – | – | 0.0452 | 0.0553 | 0.0983 | 0.0566 | – | 0.069 | 0.0984 | 0.0586 | 0.0666 | – | – | 0.0702 | 0.0771 | 0.06
Q105V | 0.114 | – | – | 0.136 | 0.0992 | 0.0986 | – | – | 0.118 | – | 0.126 | – | 0.131 | – | 0.139 | 0.161 | – | 0.0776 | –
H143S | 0.069 | 0.0832 | 0.11 | 0.0752 | 0.103 | 0.0645 | 0.0801 | 0.118 | 0.0898 | 0.0831 | 0.114 | – | 0.0791 | 0.0816 | – | 0.0988 | 0.0545 | 0.104 | 0.0865
H143V | 0.0737 | 0.03 | 0.0946 | – | 0.0736 | 0.0752 | – | 0.0799 | 0.0857 | 0.0779 | 0.0628 | – | 0.0733 | 0.0704 | 0.0507 | – | 0.0669 | 0.0667 | 0.094
H143E | 0.0464 | 0.049 | – | 0.0454 | 0.0547 | 0.0598 | – | 0.0535 | 0.0489 | 0.0589 | 0.0577 | – | 0.0549 | 0.054 | 0.0457 | – | – | 0.0483 | 0.0724
D149F | 0.088 | 0.0842 | – | – | 0.0749 | 0.0476 | 0.0773 | – | 0.0785 | 0.0683 | – | – | 0.0664 | 0.0785 | – | – | 0.0635 | – | 0.0867
D149A | 0.146 | 0.0617 | 0.122 | 0.112 | – | 0.0681 | – | – | – | – | 0.0991 | – | 0.0984 | 0.0963 | 0.109 | – | 0.0591 | 0.0919 | –
